The whole screen tested about 310,000 compounds, of which about 14,000 (4.5%) showed an effect of 50% or more. Effects have a minus sign here. Some of the results follow.
Target: human ether-à-go-go-related gene (hERG) potassium channel (human, UniProt Q12809)
Assay: primary screen, population patch clamp on CHO cells stably expressing hERG
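Also: peak tail current of the secondary pulse compared with the same well before compound.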

Chain of human ether-à-go-go-related gene (hERG) potassium channel (Q12809 whole entry, looked up): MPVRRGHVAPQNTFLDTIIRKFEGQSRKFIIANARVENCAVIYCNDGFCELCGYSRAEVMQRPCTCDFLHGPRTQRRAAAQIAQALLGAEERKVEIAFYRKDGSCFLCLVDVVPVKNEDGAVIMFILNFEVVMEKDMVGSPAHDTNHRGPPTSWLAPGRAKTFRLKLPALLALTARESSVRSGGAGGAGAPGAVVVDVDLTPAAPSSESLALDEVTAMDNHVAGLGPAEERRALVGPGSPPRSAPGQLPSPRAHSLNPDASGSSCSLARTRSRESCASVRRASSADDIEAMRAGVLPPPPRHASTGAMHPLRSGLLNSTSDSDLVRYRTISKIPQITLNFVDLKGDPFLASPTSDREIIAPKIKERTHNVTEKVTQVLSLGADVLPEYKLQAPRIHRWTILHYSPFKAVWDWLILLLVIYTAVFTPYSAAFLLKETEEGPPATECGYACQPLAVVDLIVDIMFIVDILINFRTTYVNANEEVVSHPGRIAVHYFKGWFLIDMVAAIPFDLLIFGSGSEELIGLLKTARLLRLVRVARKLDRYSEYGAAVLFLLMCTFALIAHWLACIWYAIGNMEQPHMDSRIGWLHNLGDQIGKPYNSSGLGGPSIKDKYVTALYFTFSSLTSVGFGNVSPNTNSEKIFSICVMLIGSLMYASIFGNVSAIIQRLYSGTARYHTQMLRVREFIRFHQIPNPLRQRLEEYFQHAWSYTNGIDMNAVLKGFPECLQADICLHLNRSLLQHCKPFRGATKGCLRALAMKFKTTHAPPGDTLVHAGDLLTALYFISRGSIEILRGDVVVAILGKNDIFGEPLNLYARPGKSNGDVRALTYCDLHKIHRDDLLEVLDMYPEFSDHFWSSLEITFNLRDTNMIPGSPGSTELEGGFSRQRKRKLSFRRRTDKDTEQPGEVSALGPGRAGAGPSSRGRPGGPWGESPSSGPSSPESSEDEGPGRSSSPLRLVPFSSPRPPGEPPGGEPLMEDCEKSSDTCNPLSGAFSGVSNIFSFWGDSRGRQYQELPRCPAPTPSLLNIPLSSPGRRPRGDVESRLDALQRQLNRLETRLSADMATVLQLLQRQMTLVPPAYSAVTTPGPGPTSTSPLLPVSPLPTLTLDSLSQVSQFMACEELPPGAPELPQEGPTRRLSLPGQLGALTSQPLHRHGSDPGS

Structure (SMILES) | hERG current change (%, negative = inhibition) at 10uM [%]
COc1ccc(-c2nc(CS(=O)CC(=O)NCCN3CCCCC3C)c(C)o2)cc1OC (stereo not shown) | 16.8
Cn1nc(-c2ccc(Cl)cc2)c2cc(C(=O)NCc3ccco3)sc21 | -2.54
CC(Sc1nc(-c2ccccc2)cc(C(F)(F)F)n1)C(=O)O (stereo not shown) | 20
Cc1ccc2oc(=O)n(CCCOc3ccccc3)c2c1 | -20.3
COc1cc(S(C)=O)ccc1-c1nc2ncccc2[nH]1 (stereo not shown) | 4.97
O=C(CN1C(=O)CCC1=O)c1ccc(-c2ccccc2)cc1 | -6.79
CN(C)S(=O)(=O)c1cccc(COc2ncnc3c(Cl)cc(Cl)cc23)c1 | 5.03
CCC1COCCS(=O)(=O)N1Cc1ccccc1 (stereo not shown) | 7.65
CC1(C)Oc2cc3oc(-c4cc(O)cc(O)c4)cc3cc2CC1O (stereo not shown) | 9.93
COc1cccc(-c2nc(-c3ccccc3)c(-c3ccccc3)[nH]2)c1OCC(=O)O | 10.5
COc1cc(C(=O)N(Cc2ccc(N(C)C)cc2)C2CCS(=O)(=O)C2)cc(OC)c1OC (stereo not shown) | -1.43
COc1ccc(S(=O)(=O)NCCc2ccccc2)cc1 | -9.27
O=C(NNC(=O)c1ccccc1Br)c1ccncc1 | 10.1
CCC[C@@H](CN[C@@H](CNC)[C@H](C)CC)NCC1CCC(C(C)(C)C)CC1 (stereo partly shown) | -4.33
COc1cc2c(cc1OC)CN(C(=O)C(C)(C)C)CC2 | 17.6
Nc1c(C(=O)Nc2ccc3c(c2)OCCO3)nnn1Cc1ccccc1 | -3.13
COc1ccc(OC)c(NC(=O)CSc2nncc3ccc(OC)c(OC)c23)c1 | 6.73
COc1cc(C2C(C#N)=C(N)N(c3sc4c(c3C#N)CCCC4)C3=C2C(=O)CC(C)(C)C3)cc(OC)c1OC (stereo not shown) | -18.6
COc1ccc(N(C(=O)Cn2nnc(-c3ccc(C)o3)n2)C(C(=O)NC2CCCC2)c2ccncc2)cc1 (stereo not shown) | 14.8
S=C(NCc1ccco1)Nc1ccc(Cl)cc1 | -0.891
O=C(CNC(=O)c1ccccc1)OC1CCCCC1 | -1.49
COc1ccc(CCNC(=O)CN2CCN(Cc3ccccc3F)C2=O)cc1OC | 8.26

Structure (SMILES) | hERG current change (%, negative = inhibition) at 10uM [%]
CN(C)S(=O)(=O)c1cccc(NC(=O)COC(=O)c2cc3ccccc3oc2=O)c1 | -4.96
Cc1cc(C)nc(/N=C2\NC(=O)CC(C(=O)O)N2c2ccc(F)c(Cl)c2)n1 (stereo not shown) | 21.5
O=C(CNC(=O)c1ccc(N2C(=O)c3ccccc3C2=O)cc1)OCC(=O)c1cccc2ccccc12 | 27.1
CCCCc1n[nH]c2c1/C(=N/O)CC(C)(C)C2 | -4.12
CC(C)OC(=O)CC(=O)CSc1nc2c(cc1C#N)CCCC2 | -12.7
O=C(NCCNc1ccc(Cl)cc1[N+](=O)[O-])c1ccccc1F | 3.81
Cc1cc(/C=C2/NC(=O)NC2=O)c(C)n1-c1sc2c(c1C#N)CCCC2 | 3.07
O=C(Cn1cnc2c(oc3ccccc32)c1=O)NCc1ccco1 | -4.95
CCc1ccccc1NC(=O)CN(c1ccc(OC)cc1OC)S(=O)(=O)c1ccccc1 | 6.82
CCc1cccc(CC)c1NC(=O)/C(C#N)=C/c1ccccc1C(F)(F)F | 21.4
CCC(C)(C)NC(=O)C(c1ccc(F)cc1)N(Cc1ccco1)C(=O)c1cnccn1 (stereo not shown) | -1.65
Cc1noc(C)c1S(=O)(=O)N1CCCC(C(=O)N2CCC(C)CC2)C1 (stereo not shown) | -3.8
CC(C)CNC(=O)COC(=O)Cc1ccc(Cl)cc1 | 12.5
Cc1nc(-c2ccncc2)sc1C(=O)Nc1ccc(Cl)cc1 | 13.3
O=C(NCC1CCCO1)c1cc(C(=O)C2CCCCC2)c[nH]1 (stereo not shown) | 15.4
Cc1c(OC(C)C(=O)NC(Cc2c[nH]c3ccc(O)cc23)C(=O)O)ccc2c1oc(=O)c1ccccc12 (stereo not shown) | 1.93
COc1cc(C2C(C(=O)c3cccs3)=C(O)C(=O)N2c2cc(C)on2)ccc1O (stereo not shown) | -0.278
CCOc1ccc(-c2[nH]ncc2-c2ccccc2)c(O)c1 | 0.809
COc1cc(/C=C/C(=O)Nc2cccc(S(=O)(=O)N3CCOCC3)c2)ccc1OCC#N | -25.8
CC(C)CCN1CCN(CC#Cc2ccccc2)CC1CCO (stereo not shown) | -49.9
COc1ccc(-n2nc(C(=O)Nc3ccc4c(c3)OCO4)c3c4ccccc4n(C)c3c2=O)cc1 | 15.5

— publication PMC4336329 (PLoS ONE, 2015)
